Data: the supplement of paper PMC12582362
Where a name gives a salt, the structure may show the parent alone. Among all 1,500 compounds or so, about 30 (2%) showed activity.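 The calls were made as follows: active = robust z-score below -2; a few such results were not called.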 The list shows a part of the results.

System: optoTopBP1 Flp-In 293 T-REx (HEK293) cells
Experiment: light-induced TopBP1 condensate (nuclear foci) count, plate-normalised robust z-score vs non-control wells; higher = more TopBP1 condensates (negative = condensation inhibitor), active = hit call of the paper
Conditions: 10 µM; incubation time 2 h

SMILES | light-induced TopBP1 condensate (z-score)
CCc1ccc(CCOc2ccc(CC3SC(=O)NC3=O)cc2)nc1 (stereo unspecified) [Pioglitazone] | inactive: -0.504
Cc1c(Cl)cccc1Nc1ccccc1C(=O)O [Tolfenamic acid] | inactive: -0.245
CO[C@H]1/C=C/O[C@@]2(C)Oc3c(C)c(O)c4c(O)c(c(/C=N/N5CCN(C)CC5)c(O)c4c3C2=O)NC(=O)/C(C)=C\C=C\[C@H](C)[C@H](O)[C@@H](C)[C@@H](O)[C@@H](C)[C@H](OC(C)=O)[C@@H]1C [Rifampicin] | inactive: 0.31
CC(C(=O)O)c1ccc(CC2CCCC2=O)cc1 (stereo unspecified) [loxoprofen] | inactive: 0.426
CC[C@H]1OC(=O)[C@H](C)[C@@H](O[C@H]2C[C@@](C)(OC)[C@@H](O)[C@H](C)O2)[C@H](C)[C@@H](O[C@@H]2O[C@H](C)C[C@H](N(C)C)[C@H]2O)[C@](C)(O)C[C@@H](C)C(=O)[C@H](C)[C@@H](O)[C@]1(C)O [Erythromycin] | inactive: -0.359
OCCN1CCN(CCCN2c3ccccc3Sc3ccc(C(F)(F)F)cc32)CC1 [Fluphenazine dihydrochloride] | inactive: -1.16
CC(C)(Oc1ccc(CCNC(=O)c2ccc(Cl)cc2)cc1)C(=O)O [Bezafibrate] | inactive: 0.847
c1ccc(CC2=NCCN2)cc1 [Tolazoline hydrochloride] | inactive: -0.561
O=C1c2ccccc2C(=O)C1c1ccccc1 [Phenindione] | inactive: -0.545
Clc1ccc2c(c1)C(N1CCNCC1)=Nc1ccccc1O2 [Amoxapine] | inactive: -0.889
C[C@H](NCc1ccc(OCc2cccc(F)c2)cc1)C(N)=O [Safinamide] | inactive: -0.127
CCn1cc(C(=O)O)c(=O)c2cc(F)c(N3CCNCC3)nc21 [Enoxacin] | inactive: 0.168
CC(=O)OCC(=O)NCCCOc1cccc(CN2CCCCC2)c1 [Roxatidine Acetate hydrochloride] | inactive: 1
CCCc1ncc(C[n+]2ccccc2C)c(N)n1 [Amprolium hydrochloride] | inactive: -0.31
CC(C(=O)O)c1cccc(Oc2ccccc2)c1 (stereo unspecified) [Fenoprofen calcium salt dihydrate] | inactive: 0.527
Oc1ccc(C2CNCCc3c2cc(O)c(O)c3Cl)cc1 (stereo unspecified) [Fenoldopam] | inactive: -0.865
CC(C)=CCOc1ccc(/C=C/C(=O)c2ccc(OCC=C(C)C)cc2OCC(=O)O)cc1 [Sofalcone] | inactive: 0.373
O=C1OC(c2ccc(O)cc2)(c2ccc(O)cc2)c2ccccc21 [Phenolphthalein] | inactive: 0.64
CCN(CC)CCCC(C)Nc1ccnc2cc(Cl)ccc12 (stereo unspecified) [Chloroquine diphosphate] | inactive: -0.187
Nc1ccc(S(=O)(=O)NC(=O)c2ccccc2)cc1 [Sulfabenzamide] | inactive: 1.06
C=C(CC)C(=O)c1ccc(OCC(=O)O)c(Cl)c1Cl [Ethacrynic acid] | inactive: -0.868
C1N2CN3CN1CN(C2)C3 [Methenamine] | inactive: 0.655

SMILES | light-induced TopBP1 condensate (z-score)
O=C1NCCN1c1ncc([N+](=O)[O-])s1 [Niridazole] | inactive: 1.15
CCCCCN(C)CCC(O)(P(=O)(O)O)P(=O)(O)O [Ibandronate sodium] | inactive: 0.116
CC(C)(C)C(=O)OCOC(=O)[C@@H]1N2C(=O)[C@@H](/N=C/N3CCCCCC3)[C@H]2SC1(C)C [Pivmecillinam hydrochloride] | inactive: 0.64
OCC(O)CN1CCN(c2ccccc2)CC1 (racemic) [Dropropizine (R,S)] | inactive: -1.35
CNc1ncnc2c1ncn2[C@@H]1O[C@H](CO)[C@@H](O)[C@H]1O [N6-methyladenosine] | inactive: -0.502
Cc1ncc([N+](=O)[O-])n1C [Dimetridazole] | inactive: 0.777
CC(C)OC(=O)C(C(=O)OC(C)C)=C1SC=CS1 [Malotilate] | inactive: -1.03
C[C@@H](O)[C@H]1C(=O)N2C(C(=O)O)=C(SCCNC=N)C[C@H]12 [Imipenem] | inactive: 0.639
COc1cccc(CCc2ccccc2OCC(CN(C)C)OC(=O)CCC(=O)O)c1 (stereo unspecified) [Sarpogrelate hydrochloride] | inactive: 0.789
c1ccc2c(c1)CCCC2C1=NCCN1 (stereo unspecified) [Tetrahydrozoline hydrochloride] | inactive: 0.856
CC(=O)S[C@@H]1CC2=CC(=O)CC[C@]2(C)[C@H]2CC[C@@]3(C)[C@@H](CC[C@@]34CCC(=O)O4)[C@H]12 [Spironolactone] | inactive: -0.7
CCCc1cc(C(N)=S)ccn1 [Prothionamide] | inactive: 0.563
CC(Cc1cccc(C(F)(F)F)c1)NCCOC(=O)c1ccccc1 (stereo unspecified) [Benfluorex] | inactive: 0.997
C=C1CC[C@H](O)C/C1=C/C=C1\CCC[C@]2(C)[C@@H]([C@H](C)CCCC(C)C)CC[C@@H]12 [Cholecalciferol] | inactive: -0.32
NNCCc1ccccc1 [Phenelzine sulfate] | inactive: -0.188
C[C@H]1O[C@H](O[C@H]2[C@H](O)[C@@H](O)[C@@H](O[C@H]3[C@H](O)[C@@H](O)C(O)O[C@@H]3CO)O[C@@H]2CO)[C@H](O)[C@@H](O)[C@@H]1N[C@H]1C=C(CO)[C@@H](O)[C@H](O)[C@H]1O (stereo partly specified) [Acarbose] | inactive: -1.13
CC(C)(CO)[C@@H](O)C(=O)NCCC(=O)NCCSSCCNC(=O)CCNC(=O)[C@H](O)C(C)(C)CO [Pantethine] | inactive: 0.505
CN1CCC(=C2c3ccccc3C=Cc3ccccc32)CC1 [Cyproheptadine hydrochloride] | inactive: -0.51
CO[C@H]1/C=C/O[C@@]2(C)Oc3c(C)c(O)c4c(O)c(c(/C=N/N5CCN(C6CCCC6)CC5)c(O)c4c3C2=O)NC(=O)/C(C)=C\C=C\[C@H](C)[C@H](O)[C@@H](C)[C@@H](O)[C@@H](C)[C@H](OC(C)=O)[C@@H]1C [Rifapentine] | inactive: 0.932
CC(C)(C)NC[C@@H](O)COc1cccc2c1CCCC2=O [(+) -Levobunolol hydrochloride] | inactive: 0.326
N=C(N)NC(=N)NCCc1ccccc1 [Phenformin hydrochloride] | inactive: 1.28
NCCc1c[nH]cn1 [Histamine dihydrochloride] | inactive: -0.965

SMILES | light-induced TopBP1 condensate (z-score)
OC(Cn1cncn1)(Cn1cncn1)c1ccc(F)cc1F [Fluconazole] | inactive: 0.635
CCCOc1cc(N)ccc1C(=O)OCCN(CC)CC [Propoxycaine hydrochloride] | inactive: 0.623
C[C@@H](NCCCc1cccc(C(F)(F)F)c1)c1cccc2ccccc12 [Cinacalcet hydrochloride] | inactive: -0.495
CC[N+](C)(C)c1cccc(O)c1 [Edrophonium chloride] | inactive: -0.419
OCCN1CCN(CC/C=C2/c3ccccc3Sc3ccc(C(F)(F)F)cc32)CC1 [Flupentixol dihydrochloride cis-(Z)] | inactive: -0.307
Cc1cn[nH]c1 [Fomepizole] | inactive: -0.606
CC(=O)OCC(=O)[C@@]1(O)CC[C@H]2[C@@H]3CCC4=CC(=O)C=C[C@]4(C)[C@@]3(Cl)[C@@H](Cl)C[C@@]21C [Dichlorisone acetate] | inactive: -0.0617
COC(=O)Nc1nc2cc(C(=O)c3cccs3)ccc2[nH]1 [Nocodazole] | inactive: -1.07
Cc1ccc(C(=O)c2ccc(CC(=O)O)n2C)cc1 [Tolmetin sodium salt dihydrate] | inactive: -0.453
CCCCN(CCCC)CCCOC(=O)c1ccc(N)cc1 [Butacaine] | inactive: -0.0392
CC[N+](C)(CC)CCOC(=O)C1c2ccccc2Oc2ccccc21 [Methantheline bromide] | inactive: 0.691
CC(=O)OCC(=O)[C@@]1(O)CC[C@H]2[C@@H]3CCC4=CC(=O)CC[C@]4(C)[C@@]3(F)[C@@H](O)C[C@@]21C [Fludrocortisone acetate] | inactive: 0.185
NS(=O)(=O)c1cc(C2(O)NC(=O)c3ccccc32)ccc1Cl (stereo unspecified) [Chlorthalidone] | inactive: 0.367
C=CC(N)CCC(=O)O (stereo unspecified) [Vigabatrin hydrochloride] | inactive: -0.0473
CC(=O)OCC(=O)[C@@]1(O)CC[C@H]2[C@@H]3CCC4=CC(=O)CC[C@]4(C)[C@H]3[C@@H](O)C[C@@]21C [Cortisol acetate] | inactive: -0.591
CC(C)c1c(C(=O)Nc2ccccc2)c(-c2ccccc2)c(-c2ccc(F)cc2)n1CC[C@@H](O)C[C@@H](O)CC(=O)O [Atorvastatin] | inactive: 0.252
Cc1ncc(C[n+]2csc(CCO)c2C)c(N)n1 [Thiamine hydrochloride] | inactive: 1.37
CCN[C@H]1CN(CCCOC)S(=O)(=O)c2sc(S(N)(=O)=O)cc21 [Brinzolamide] | inactive: 0.971
CC(=O)Oc1ccccc1C(=O)Nc1ncc([N+](=O)[O-])s1 [Nitazoxanide] | inactive: -0.561
Oc1cc(O)c2c(c1)O[C@H](c1ccc(O)c(O)c1)[C@@H](O)C2 [Cianidanol] | inactive: 0.871
CCCCOCCOCCOCc1cc2c(cc1CCC)OCO2 [Piperonyl butoxide] | inactive: 0.0629
CCN(CC)CCOC(=O)C1(C2CCCCC2)CCCCC1 [Dicyclomine hydrochloride] | inactive: 0.739
